# Source: the BET-seq Pho4 binding data (Le et al. 2018)
# This is one part of the list. These are noisy estimates, calculated here from bound and input reads.
# Target: T1, Pho4 (S. cerevisiae) (UniProt P07270)
# T1 sequence: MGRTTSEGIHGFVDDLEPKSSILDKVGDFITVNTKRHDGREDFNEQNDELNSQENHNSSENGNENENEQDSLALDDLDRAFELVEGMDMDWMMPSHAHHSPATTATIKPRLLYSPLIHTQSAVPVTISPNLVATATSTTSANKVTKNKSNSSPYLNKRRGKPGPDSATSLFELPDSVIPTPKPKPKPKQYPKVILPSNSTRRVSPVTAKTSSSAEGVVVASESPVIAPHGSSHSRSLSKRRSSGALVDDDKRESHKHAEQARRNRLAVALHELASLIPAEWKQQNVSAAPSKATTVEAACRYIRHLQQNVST
# Experiment: relative binding free energy (BET-seq); higher = weaker binding
# Conditions: reference: library average
row,Sequence,relative binding free energy [kcal/mol]
1,TCATTCACGTGGAGAT,0.29
2,GAATGCACGTGCGTGG,-0.03
3,CGGTTCACGTGATTGT,0.32
4,GGGGTCACGTGGAGTG,0.04
5,TTGTACACGTGCTGTT,0.01
6,AGTAGCACGTGATTAG,0.13
7,ACGTGCACGTGCGTTG,-0.06
8,TTATACACGTGTTTGT,0.05
9,GCTTGCACGTGTTTTA,0.08
10,TGGATCACGTGCTGTT,0.05
11,GGAGCCACGTGGTAGG,-0.18
12,TATGGCACGTGTCGTT,-0.18
13,TAGCACACGTGGGGGT,-0.12
14,CGTTTCACGTGACGTT,0.4
15,CTGATCACGTGTTAGT,0.12
16,GTTGGCACGTGTCGGC,0.03
17,CGAATCACGTGTGGGT,0.15
18,AGGTGCACGTGCTATT,-0.14
19,TGATGCACGTGAGAGA,0.21
20,CTTGTCACGTGTCTGT,-0.1
21,GTTATCACGTGGTGTA,0.08
22,TGGGGCACGTGCGTAG,-0.18
23,CGAGGCACGTGGAGAT,-0.04
24,GGATGCACGTGCAGGG,-0.1
25,GAATTCACGTGTTTGA,0.3

row,Sequence,relative binding free energy [kcal/mol]
1,ACAGGCACGTGTGCGG,-0.22
2,TAGGGCACGTGTGTCC,-0.04
3,TTTATCACGTGCGAGT,0.09
4,TAGATCACGTGATAGT,0.28
5,GGTGCCACGTGGAGGT,-0.07
6,CGTTTCACGTGTTACT,0.19
7,ACATGCACGTGGTTTG,-0.12
8,TTAGGCACGTGTGACA,-0.04
9,GTTAACACGTGATTGG,0.09
10,AAGCGCACGTGGAGGT,-0.02
11,GGAGGCACGTGATAGT,0.04
12,GGATGCACGTGGGCAT,-0.05
13,TAATTCACGTGAAAGT,0.36
14,TGGGCCACGTGTTCGT,-0.12
15,TGGATCACGTGGGTGG,0.08
16,GTGTGCACGTGAGTTC,0.08
17,AAATGCACGTGTTTAG,0.12
18,CGCAACACGTGTGTGG,0.06
19,TATTGCACGTGGGCTA,-0.08
20,CGTAGCACGTGTGATT,-0.05
21,TAAGGCACGTGCCGGT,-0.1
22,GAGGTCACGTGTGACG,0.27
23,GCCATCACGTGAGGGG,0.27
24,ATAGTCACGTGAGTCA,0.34
25,ATTGTCACGTGCATAG,0

row,Sequence,relative binding free energy [kcal/mol]
1,GGGAACACGTGGGCAT,-0.01
2,CTGTTCACGTGCTGTT,0.21
3,GAGTGCACGTGTAGTT,0.19
4,AGCGTCACGTGGCATG,0.02
5,AATGGCACGTGCGGGT,-0.11
6,GTTGACACGTGGGTTT,-0.06
7,TGTAACACGTGTTGAA,0.07
8,TGGATCACGTGAGGCT,0.37
9,TTGTTCACGTGCGGTG,0.24
10,TTGATCACGTGTCTGG,0.18
11,GTCGTCACGTGATAAT,0.34
12,ATATACACGTGCGTGG,-0.01
13,GCGAGCACGTGGGGGA,-0.28
14,TTTGGCACGTGAGGCT,0.15
15,AGGTGCACGTGGATGC,-0.08
16,TAAGGCACGTGGTTTG,-0.09
17,GTCCTCACGTGGGGTG,0.06
18,TTGGGCACGTGAAGAC,0.31
19,TGACTCACGTGTTGTT,0.25
20,GATATCACGTGGTAGT,0.16
21,TGATCCACGTGTGGCT,0.09
22,GTGGACACGTGGATGA,0.22
23,AGTCACACGTGTTTTT,0.09
24,CTTTTCACGTGGGATA,0.03
25,TAATACACGTGGCGGT,-0.04

row,Sequence,relative binding free energy [kcal/mol]
1,TTAAGCACGTGCGATT,-0.04
2,GTATTCACGTGTGAGC,0.37
3,GTTAGCACGTGGGAGT,-0.12
4,TGTGTCACGTGCCTTT,0.12
5,CTTATCACGTGTTTTT,0.07
6,GTTGCCACGTGGAGGT,-0.04
7,ATATGCACGTGTAGGG,0
8,AAGGCCACGTGTGAGG,-0.15
9,CGTGTCACGTGTTCTG,0.16
10,GCCGGCACGTGGGTGA,-0.14
11,ATTAACACGTGATTGT,-0.04
12,TGGCGCACGTGTGTTG,-0.1
13,ATGACCACGTGAGGTG,0.22
14,GTTGGCACGTGGTGAT,-0.01
15,GGGGCCACGTGGGTAT,-0.11
16,ATATGCACGTGTCGGA,0.03
17,AGCGCCACGTGGGGGC,-0.21
18,GCAGTCACGTGATAGG,0.26
19,AATGGCACGTGGATTG,-0.16
20,ACTTACACGTGTGGGT,0.04
21,AATCGCACGTGGGGTG,-0.18
22,GATGGCACGTGTATTT,0.11
23,TGTTACACGTGAACTG,0.29
24,ATTCGCACGTGGCGTG,-0.17
25,GGTTTCACGTGTGTCG,0.34

row,Sequence,relative binding free energy [kcal/mol]
1,AGGTGCACGTGAGGTG,0.21
2,TTATCCACGTGTTTGG,-0.05
3,GATCACACGTGGGTTT,0.06
4,TGCTACACGTGATTGG,0.14
5,GTTACCACGTGTTTAT,0.11
6,TGGCGCACGTGTGGTG,-0.08
7,TTTCTCACGTGTGTAT,0.28
8,TAGCTCACGTGGTATT,0.02
9,AGGCGCACGTGTGTGG,-0.07
10,TTTGTCACGTGCGTCG,-0.13
11,CTTGTCACGTGATGTA,0.22
12,CGTGTCACGTGGATTG,0.14
13,GTGTCCACGTGTGGCA,0.21
14,ATAGTCACGTGGACTT,0.06
15,TCTTGCACGTGTGGGC,0.07
16,GTTATCACGTGTCTGG,0.18
17,TTACGCACGTGATGTA,-0.02
18,GGCGACACGTGTTGTG,0.04
19,TTAAGCACGTGGGCAA,-0.1
20,ATCGGCACGTGGGCTG,-0.36
21,CGGTCCACGTGAGGTG,0.1
22,TTAGGCACGTGGCCTG,-0.26
23,CGATTCACGTGTATGT,0.18
24,CGGTACACGTGGGTCG,-0.11
25,ATCAGCACGTGTTAGG,-0.01

row,Sequence,relative binding free energy [kcal/mol]
1,ATTAACACGTGTGGTT,0.11
2,GTGTACACGTGCTAGT,0.06
3,TTTGTCACGTGTCCAG,0.11
4,CTCGTCACGTGGGGTA,-0.13
5,TTAGGCACGTGAAGGT,0.06
6,GTGGGCACGTGAGTTT,0.2
7,ATGGGCACGTGCAAGT,-0.05
8,GTGAGCACGTGAGATT,0.17
9,TAGGGCACGTGATTAT,-0.03
10,AGGGGCACGTGGGGAT,-0.14
11,GGGCACACGTGGCTGG,0.08
12,ATCGTCACGTGTTGTA,0.16
13,TGTGACACGTGTATAG,0.1
14,TGTTCCACGTGTGGTA,0.11
15,ATGTGCACGTGGTGTC,-0.16
16,TTGGTCACGTGAAACT,0.35
17,GCTAGCACGTGTCGGT,0.13
18,ATTTACACGTGATAGA,0.27
19,GGAGTCACGTGAGAGT,0.24
20,AGTGCCACGTGATGTG,0.09
21,AGTGGCACGTGGATGA,-0.07
